Out of some 310,000 compounds screened, about 2,200 (0.71%) showed an effect of 50% or more. Effects have a minus sign here. The list shows a part of the results.
The compounds below were run against human ether-à-go-go-related gene (hERG) potassium channel (human, UniProt Q12809) (assay: primary screen, population patch clamp on CHO cells stably expressing hERG).
Chain of human ether-à-go-go-related gene (hERG) potassium channel (Q12809 whole entry, looked up): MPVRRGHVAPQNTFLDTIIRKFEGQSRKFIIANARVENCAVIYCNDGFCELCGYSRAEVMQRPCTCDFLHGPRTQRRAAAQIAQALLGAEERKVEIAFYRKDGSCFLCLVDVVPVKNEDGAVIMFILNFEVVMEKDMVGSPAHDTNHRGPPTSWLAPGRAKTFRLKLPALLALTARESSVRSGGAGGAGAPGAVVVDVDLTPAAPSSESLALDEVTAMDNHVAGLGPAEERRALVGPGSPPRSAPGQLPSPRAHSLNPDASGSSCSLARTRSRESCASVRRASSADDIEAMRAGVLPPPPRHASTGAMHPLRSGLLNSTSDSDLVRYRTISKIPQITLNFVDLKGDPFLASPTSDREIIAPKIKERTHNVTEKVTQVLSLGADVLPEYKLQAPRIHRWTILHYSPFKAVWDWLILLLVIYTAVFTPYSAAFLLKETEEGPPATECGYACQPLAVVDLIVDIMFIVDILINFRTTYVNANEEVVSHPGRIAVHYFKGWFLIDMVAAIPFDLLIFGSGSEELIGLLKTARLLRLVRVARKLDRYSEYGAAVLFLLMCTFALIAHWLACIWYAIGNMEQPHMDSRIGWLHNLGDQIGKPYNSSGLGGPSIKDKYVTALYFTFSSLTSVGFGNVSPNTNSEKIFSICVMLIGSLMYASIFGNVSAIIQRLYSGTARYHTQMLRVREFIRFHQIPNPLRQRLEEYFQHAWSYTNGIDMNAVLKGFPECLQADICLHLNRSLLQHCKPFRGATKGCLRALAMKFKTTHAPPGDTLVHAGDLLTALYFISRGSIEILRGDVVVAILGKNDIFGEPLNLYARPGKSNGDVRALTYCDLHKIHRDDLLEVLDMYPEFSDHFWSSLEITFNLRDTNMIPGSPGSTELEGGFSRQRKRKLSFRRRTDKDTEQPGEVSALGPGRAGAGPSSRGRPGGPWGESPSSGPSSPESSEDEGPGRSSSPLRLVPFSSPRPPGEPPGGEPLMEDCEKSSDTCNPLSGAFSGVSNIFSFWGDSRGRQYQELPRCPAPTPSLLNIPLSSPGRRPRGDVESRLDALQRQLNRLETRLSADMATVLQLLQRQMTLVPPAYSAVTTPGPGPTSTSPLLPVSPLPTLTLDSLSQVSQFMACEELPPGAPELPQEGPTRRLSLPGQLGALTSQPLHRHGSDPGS

| Structure (SMILES) | hERG current change (%, negative = inhibition) at 1uM |
| --- | --- |
| O=C(Nc1ccc(F)cc1)N1CCN(C(=O)C2CCCO2)CC1 (centres unmarked) | 9.04% |
| COc1ccc(S(=O)(=O)/N=C2\C=C(NS(=O)(=O)c3ccccc3)C(=O)c3ccccc32)cc1 | 8.41% |
| O=C(Nc1ccccc1)c1cn(CCBr)cn1 | 14% |
| COC(=O)Oc1c(Br)c(=O)oc2ccccc12 | 12.6% |
| CC1=C(C)/C(=N\OS(=O)(=O)c2ccccc2)C=CC1=O | 2.08% |
| O=C(NC1CCCCC1)C(c1ccc(F)cc1)N(CCc1ccccc1)C(=O)CN1C(=O)c2ccccc2S1(=O)=O (centres unmarked) | 16.3% |
| Cc1nc(N2CCC(C)CC2)c2nnn(Cc3ccccc3)c2n1 | 11.6% |
| CN(C)S(=O)(=O)c1cccc(NC(=S)N2CCCCC2CO)c1 (centres unmarked) | 3.32% |
| Cc1ccccc1-n1c(SCC(=O)c2c(N)n(C)c(=O)n(C)c2=O)nc2sc3c(c2c1=O)CCCC3 | 26.3% |
| COc1cc2ccccc2cc1C(=O)Nc1cccnc1 | 1.3% |
| Cn1c(=O)c2cc(S(=O)(=O)NCCC(=O)NC3CCCCCCC3)ccc2n(C)c1=O | -3.28% |
| O=C(COc1ccc(F)c(Cl)c1)N1CCCCCCC1 | 16% |
| O=C(OC1CCOC1=O)c1ccc2ncsc2c1 (centres unmarked) | 6.14% |
| Cc1n[nH]c(C)c1CCc1nc2c3ccccc3nc(SCC(=O)Nc3ccccc3F)n2n1 | 8.59% |
| COc1cc(C(=O)NCCCNc2ccc([N+](=O)[O-])cc2)cc(OC)c1OC | -24.6% |
| COc1ccc(C(=O)NNC(=O)C2CCCN(C3CC(=O)N(c4ccccc4)C3=O)C2)cc1 (centres unmarked) | 9.55% |
| C=CCNC(=O)/C(=C\c1ccc([N+](=O)[O-])cc1)NC(C)=O | 8.68% |
| CCN(CC(=O)NCc1cccs1)C(=O)CCC(=O)c1ccc(C)cc1 | -15.9% |
| Cc1ccc(NC(=O)CSCC(=O)NC2=NCCS2)cc1 | 2.84% |
| COC(=O)CSc1nc2c(c(=O)[nH]c(=O)n2C)n1CCC(C)C | -0.966% |
| C=CCn1c(C)c(C(=O)OCC)c2cc(O)c3ccccc3c21 | 6.27% |
| OCC1(Cc2cccc(Cl)c2)CCCN(Cc2ccc3cc(F)ccc3n2)C1 (centres unmarked) | -1.37% |
| CCCOCC(O)CCc1n[nH]c(=S)n1-c1ccccc1 (centres unmarked) | 24.6% |

| Structure (SMILES) | hERG current change (%, negative = inhibition) at 1uM |
| --- | --- |
| Cc1ccc(NC(=O)c2ccc(NC(=O)c3ccccc3)cc2)cc1C | -0.468% |
| C=CCn1c(COc2ccccc2)nnc1SCC(=O)Nc1ccc(S(N)(=O)=O)cc1 | 8.92% |
| O=C(/C=C/c1ccc2c(c1)OCO2)Nc1ccc(Cl)cn1 | 10.6% |
| O=C(CCc1nnc(CCC2CCCCC2)o1)NCCc1ccccn1 | -9.12% |
| CC(CNC(=O)CN1C(=O)COc2ccc(S(=O)(=O)N3CCCCC3)cc21)c1ccccc1 (centres unmarked) | 22.4% |
| CS(=O)(=O)c1ccc(-n2c(=O)n(Cc3ccccc3)c(=O)c3[nH]cnc32)cc1 | 4.73% |
| O=C(Nc1cccc([N+](=O)[O-])c1)c1ccn[nH]1 | 17.3% |
| Cc1cc(C)n2c(=S)[nH]nc2n1 | 12.9% |
| O=C(c1cc(-c2ccc(O)cc2)on1)N1CCN(c2ccc(F)cc2)CC1 | 12.4% |
| CC(C)CNC(=O)N1c2ccccc2Sc2ccccc21 | 14.4% |
| CCCN1C2CCCC1CC(NC(=O)c1ccc(Br)cc1)C2 (centres unmarked) | -41.1% |
| COC(=O)/N=C(/Cc1ccc(OC)cc1)c1ccc(OC)cc1 | 12.1% |
| Cc1ccc(S(=O)(=O)Nc2ccc3ncccc3c2)cc1 | 11.4% |
| Cc1cc(=O)[nH]c2ccccc12 | 10.2% |
| Cc1ccc2nsnc2c1NC(=O)c1ccc([N+](=O)[O-])cc1 | -3.16% |
| COc1cccc(CC(=O)Nc2ccccc2N2CCCC2)c1 | 10.9% |
| Cc1ccc(NC(=O)CSCc2cc(=O)n3ccsc3n2)c(C)c1 | 10.8% |
| Cc1cc(N2CCN(S(=O)(=O)c3ccc(Cl)cc3)CC2)c2ccccc2n1 | -80.8% |
| CC(=O)c1cc2c(cc1NC(=O)C1CC1)OCO2 | 9.24% |
| CCS(=O)(=O)N1CCC(C(=O)NCc2cccnc2)CC1 | -12.1% |
| CCCCC(=O)Nc1cc([N+](=O)[O-])ccc1F | 10.9% |
| CN(C)c1ccc(NC(=O)CN2CCN(c3ccc(F)cc3)CC2)cc1 | -3.53% |
| CCOC(=O)c1sc(Nc2nc3cc4c(cc3s2)OCO4)cc1C | 13.2% |

| Structure (SMILES) | hERG current change (%, negative = inhibition) at 1uM |
| --- | --- |
| O=C1C2CCCCN2C(=O)N1CCCCN1CCN(c2cccc(Br)c2)CC1 (centres unmarked) | -16.7% |
| CCSc1n[nH]c(=O)[nH]c1=O | 7.32% |
| CC(C)NC(=O)[C@H]1N2C(=O)c3ccccc3C2SC1(C)C (some centres unmarked) | 22.7% |
| CC(C)N(C(=O)CSc1nnc(CN2CCCCCC2=O)n1-c1ccccn1)C(C)C | 13.1% |
| CCOC(=O)n1c(=O)n(Cc2ccccc2Cl)c2ccccc21 | 10.3% |
| COCc1ccc(C(=O)N2CCCC(N3CCN(c4ccc(F)cc4)CC3)C2)o1 (centres unmarked) | -24.6% |
| O=C(Nc1ccc(Cl)cn1)c1cccc(S(=O)(=O)N2CCCC2)c1 | -19.3% |
| COc1ccc(CCNC(=O)c2nonc2N)cc1 | -2.08% |
| Cc1ccc(N2C(=O)CC(N3CCN(S(=O)(=O)c4ccccc4)CC3)C2=O)c(C)c1 (centres unmarked) | 12.3% |
| COc1nc(OC)nc(N2CCC(C(=O)NCc3cccs3)CC2)n1 | -7.17% |
| O=C(NC(=S)Nc1ccccc1)c1ccc(Br)o1 | 8.62% |
| CSc1ccc(CNC(=O)c2ccc(NC(=O)C3=CSCCO3)cc2)cc1 | 16.4% |
| Cc1ccc(-c2[nH]ncc2CNCCc2cnn(-c3ccccc3)c2)cc1C | -24.9% |
| C=C1CCN([C@@H](CC(C)C)C(=O)NCCC(C)C)S(=O)(=O)c2ccccc21 | 11.9% |
| CC1CCN(c2nc3c(cc2C#N)COC(C)(C)C3)CC1 | -3.74% |
| CCCc1nc2cc(CC(=O)OC)ccc2o1 | 19.4% |
| CCOC(=O)CSc1nc2ccccc2c(=O)n1C1CCCC1 | -0.485% |
| CC(C)NC(=O)CC(=O)N/N=C\c1ccccc1C(=O)O | 13.9% |
| CCCN1CCO[C@@H]2c3cc(O)ccc3OC[C@H]21.Cl | 9.38% |
| O=C(CNC(=O)c1sc2ccccc2c1Cl)NC1CC1 | 9.43% |
| COc1ccc(C(=O)NCCN2CCOCC2)c(OC)c1OC | -0.268% |
| Cc1cc(C)nc(NC(=O)Cc2ccc([N+](=O)[O-])cc2)c1 | -2.56% |
| CC(C)C(NC(=O)C1CCCCC1)C(=O)NCc1ccccn1 (centres unmarked) | 5.83% |

| Structure (SMILES) | hERG current change (%, negative = inhibition) at 1uM |
| --- | --- |
| COc1ccc(-c2nnc(Nc3nc4c(OC)cccc4s3)o2)cc1 | 9.17% |
| Cc1ccccc1-n1c(=O)c2ccccc2n2c(=O)[nH]nc12 | 17.5% |
| Cc1ccc2c(CC(=O)O)coc2c1 | 21.6% |
| O=C(NCCN1CCOCC1)c1cc(Sc2ccc(F)cc2F)nc2ccccc12 | -3.95% |
| O=C(N/N=C/c1cccc(OC(=O)c2ccccc2Cl)c1)c1cccnc1 | 14.4% |
| Nc1ncnc(SCc2c(F)cccc2Cl)n1 | 12.8% |
| Cn1c(C(=O)NCCN2CCN(c3ccccc3F)CC2)cc2c(=O)n(C)c3ccccc3c21 | 7.05% |
| NC(=O)c1ccc(=O)n(Cc2ccc(Cl)cc2Cl)c1 | 16.1% |
| Cc1c(Cl)cnc(NC(=O)COC(=O)C(NC(=O)c2ccco2)C(C)C)c1Cl (centres unmarked) | 6.46% |
| CC(C)(C)NC(=O)NC(=O)COC(=O)c1ccco1 | -4.9% |
| Cc1c(NC(=S)N/N=C/c2cc([N+](=O)[O-])ccc2O)c(=O)n(-c2ccccc2)n1C | 6.38% |
| O=C1Cc2ccccc2C(c2ccccc2)N1 (centres unmarked) | 8.8% |
| CCOc1ccc(N/C(=N/c2nc(C)cc(C)n2)NC(=O)CC)cc1 | 7.86% |
| COc1ccc(CNC(=O)C2CCCN(S(=O)(=O)N3CC(C)CC(C)C3)C2)c(OC)c1 (centres unmarked) | 4.92% |
| O=S(=O)(c1cnccc1N1CCN(/N=C/c2ccccc2)CC1)N1CCCCC1 | 12.1% |
| CCC(=O)N1CCc2cc(OC)c(OC)cc2C1COc1ccc(OC)cc1 (centres unmarked) | 5.86% |
| COc1ccccc1-n1cc(C(=O)N2CCCC(CO)(Cc3ccccc3C)C2)cn1 (centres unmarked) | 10.3% |
| CCN1CCN(S(=O)(=O)c2ccc(OC)c(Br)c2)CC1 | 15.5% |
| O=C(CSc1ncn[nH]1)Nc1cccc2ccccc12 | 5.07% |
| COc1ccc([C@@H]2CC=C(C(=O)O)[C@H](c3ccc(F)cc3)N2S(=O)(=O)c2ccccc2C)cc1 | 21.5% |
| COc1ccc2ccccc2c1/C=N/NC(=O)c1nnn(-c2nonc2N)c1CN(C)C | 3.79% |
| Cc1cnn(-c2ccc3nnc(-c4ccc(Br)cc4)n3n2)c1 | -4.21% |
| CCOC(=O)c1cc(-c2ccccc2)sc1NC(=O)CN1C(=O)NC(CC)(c2ccc(F)cc2)C1=O (centres unmarked) | 10.3% |

Reference: article PMC4336329 (PLoS ONE, 2015)
